# From PubChem BioAssay AID1345082 (National Center for Advancing Translational Sciences (NCATS), 2018)
# Among all 94,000 compounds or so, about 4,000 (4.3%) were called active. The shares of active, inactive and inconclusive entries below differ from those in the screen. Calls follow the shape of the dose curve; as a rule, active = well fitted inhibition curve with a large enough effect; inconclusive = small, poorly fitted or top-dose-only effect; inactive = no such curve, though single readings can be large or run the other way. Where the call is inconclusive, the potency comes from a doubtful curve fit.
# Experiment: Cytotoxic Profiling in NIH 3T3 Cell Line of Diverse Libraries Using Quantitative High-Throughput Screening; also: nearly all actives have a fitted effect of over 55% in size
# Settings: NIH 3T3 viability, CellTiter-Glo ATP luminescence, 48-72 h; series mostly up to 96.7 µM
# In short: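 Viability of NIH 3T3 cells after 48 or 72 hr compound treatment at 37 °C was assessed by CellTiter-Glo, with luminescence imaged following a 10 min room-temperature step.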
# Potency is read from the fitted curve at half-maximal effect; tags tell the direction and shape of the fitted curve.
row,SMILES,Potency
1,CC(C)CNC(=O)c1ccc2nc(-c3ccccn3)oc2c1,"inconclusive: 39.8 µM [inhibitor, partial curve, poor fit]"
2,N#Cc1ccc(C(=O)N2CCC3(CC2)NC(=O)N(Cc2ccc(F)cc2)C3=O)cc1,"inconclusive: 50.1 µM [inhibitor, partial curve, poor fit]"
3,O=C(CC1C(=O)NCCN1Cc1cccc(Oc2ccccc2)c1)NCc1ccco1 (configuration not stated),"inconclusive: 56.2 µM [inhibitor, partial curve, poor fit]"
4,CN(c1ccccc1)c1ccc2nnc(-c3ccccn3)n2n1,"inconclusive: 35.5 µM [inhibitor, partial curve, poor fit]"
5,Cc1nn2c(c1-c1ccccc1Oc1ccccc1)N(C(=O)c1cccc(C#N)c1)CCC2,"inconclusive: 56.2 µM [inhibitor, partial curve, poor fit]"
6,CC(C)Cc1nc(CN2C[C@@H]3CC[C@H](C2)N(Cc2ccccc2)C3)no1,"inconclusive: 79.4 µM [inhibitor, partial curve]"
7,O=C(c1ccc(F)cc1Cl)N1CCC(n2cc(-c3nc(-c4ccccc4)no3)nn2)CC1,"inconclusive: 56.2 µM [inhibitor, partial curve, poor fit]"
8,O=C1NC2(CCN(Cc3ccsc3)C2)COc2ccccc21 (configuration not stated),active: 39.8 µM
9,N#CC1CCN(C(=O)c2nc(-c3ccc(Cl)cc3)c3ccccn23)CC1,"inconclusive: 50.1 µM [inhibitor, partial curve, poor fit]"
10,CC(C)(C)c1cnc(-c2ccccc2)[nH]1,"inconclusive: 100 µM [inhibitor, partial curve]"
11,COc1cccc(-c2noc(-c3ccc(-c4ccc(O)cc4)nc3)n2)c1OC,active: 44.7 µM
12,Cc1nn2c(c1-c1ccnn1C(C)C)N(C(=O)C(C)C)CCC2,"inconclusive: 112 µM [inhibitor, single point]"
13,CCOc1ccccc1-c1nc(C2CC(=O)N(c3ccc(C)cc3)C2)no1 (configuration not stated),"inconclusive: 50.1 µM [inhibitor, partial curve, poor fit]"
14,O=C(C1CCN(Cc2ccccc2-c2cccnc2)CC1)N1CCOCC1,"inconclusive: 79.4 µM [inhibitor, single point]"
15,Cc1c(-c2ccc(Cl)cc2)n[nH]c1C(=O)N[C@@H]1CCNC[C@H]1O,"inconclusive: 89.1 µM [inhibitor, single point]"
16,O=C(Nc1ccccc1F)N1CCCN(CCn2nc3n(c2=O)CCCC3)CC1,inactive
17,CNC(=O)c1cc(C)nc2onc(C3CCCN(C(=O)c4ccc(C)cc4)C3)c12 (configuration not stated),"inconclusive: 44.7 µM [inhibitor, partial curve, poor fit]"
18,C[S+](=O)([O-])N1Cc2ccccc2CC2(CCCN2CC2CCOCC2)C1 (configuration not stated),inactive
19,Cn1ncc(N2CCC(CNC(=O)C3(c4ccccc4)CCCC3)C2)cc1=O (configuration not stated),"inconclusive: 79.4 µM [inhibitor, partial curve, poor fit]"
20,OC(c1nc(Nc2ccc(Oc3ccccc3)cc2)n[nH]1)C1CC1 (configuration not stated),"inconclusive: 89.1 µM [inhibitor, partial curve]"
21,COc1cccc(Nc2cnc3ccc(-c4ccc(F)cc4)nn23)c1,"inconclusive: 89.1 µM [inhibitor, partial curve]"
22,COc1ccc(CN2C=C(C(=O)OCc3noc(-c4ccccc4F)n3)C(C)=NS2(=O)=O)cc1,"inconclusive: 11.2 µM [inhibitor, full curve, poor fit]"
23,COc1ccccc1Cn1c(=O)c(C(=O)NCCSC)nc2cccnc21,"inconclusive: 79.4 µM [inhibitor, partial curve, poor fit]"

row,SMILES,Potency
1,Cc1csc(NC(=O)c2nc3c(o2)CCN(Cc2c(C)noc2C)CC3)n1,active: 50.1 µM
2,Cc1ccc(C)c(NC(=O)N2CCCC(c3noc(COc4ccccc4)n3)C2)c1 (configuration not stated),"inconclusive: 50.1 µM [inhibitor, single point]"
3,O=C(Cc1ccc(F)cc1)Nc1ccc2ncnc(N3CCCC3)c2c1,"inconclusive: 44.7 µM [inhibitor, partial curve, poor fit]"
4,Cc1cccc(NC(=O)Nc2ccc(C)n(CC(=O)O)c2=O)c1,inactive
5,COCCCNC(=O)CCCN1C(=O)COc2ccc(C(=O)COc3ccccc3C)cc21,inactive
6,Cc1cccc(CN2CCn3c(nnc3[C@@H]3C[C@@H](O)CN3Cc3cccnc3)C2)c1,inactive
7,O=C(NCc1ccc(F)cc1)N1CCCC(Cc2nncn2-c2ccccc2)C1 (configuration not stated),"inconclusive: 44.7 µM [inhibitor, partial curve, poor fit]"
8,CCCCCC(=O)N[C@H]1C[C@@H](Cc2cc(COc3ccccc3)on2)C1(C)C,active: 39.8 µM
9,CC(C)S(=O)(=O)N1CC(Oc2ccc(-c3noc(-c4cccnc4)n3)cc2)C1,inactive
10,O=C(NCc1ccc(Cl)cc1)c1ccc2nnc(Cc3ccco3)n2c1,"inconclusive: 50.1 µM [inhibitor, partial curve, poor fit]"
11,CCN1c2cc(C(=O)Nc3cc(C)cc(C)c3)ccc2C(=O)N2CCCCC21 (configuration not stated),"inconclusive: 44.7 µM [inhibitor, partial curve, poor fit]"
12,Cn1ncc2c(C(=O)NCc3ccccc3F)cc(-c3ccccc3F)nc21,"inconclusive: 31.6 µM [inhibitor, partial curve]"
13,O=C(C[C@@H]1CCNC[C@@H]1Cc1cc(CC2CCCCC2)on1)NC1CCCCC1,"inconclusive: 100 µM [inhibitor, partial curve, poor fit]"
14,CN(Cc1cnn(C)c1)C(=O)c1csc2nc(-c3ccc(C(F)(F)F)cc3)cn12,"inconclusive: 44.7 µM [inhibitor, partial curve, poor fit]"
15,O=C(NCCc1noc(C2CC2)n1)c1ccc(Cl)s1,inactive
16,CS(=O)(=O)N(Cc1cccnc1)C1CN(C(=O)c2ccc3cc[nH]c3c2)C1,inactive
17,CSCCNC(=O)c1cc(-c2ccc(Cl)cc2Cl)nc2c1cnn2C,"inconclusive: 22.4 µM [inhibitor, full curve]"
18,CC1(c2ccccc2)CCCN(C(=O)c2ccnc(-n3cnnc3)c2)C1 (configuration not stated),"inconclusive: 89.1 µM [inhibitor, partial curve, poor fit]"
19,O=C(Cc1ccc(F)cc1)NC1CCN(c2nccc(Nc3ccccc3F)n2)CC1,"inconclusive: 44.7 µM [inhibitor, partial curve, poor fit]"
20,Cc1cccc(-n2cc(CN3CCCC(C)(O)C3)c(-c3cccc(F)c3)n2)c1 (configuration not stated),active: 89.1 µM
21,COc1ccc(-n2c(=O)c(C(=O)NCCSC)nc3cccnc32)cc1,inactive
22,O=C(NCC1CC1)c1cccc(OC2CN(C3CCN(Cc4ccccc4)CC3)C2)c1,"inconclusive: 50.1 µM [inhibitor, partial curve, poor fit]"
23,COc1ccc(CNC(=O)c2cc3n(n2)CC(c2ccc(Cl)cc2)OC3)cc1 (configuration not stated),"inconclusive: 44.7 µM [inhibitor, partial curve, poor fit]"

row,SMILES,Potency
1,CN(C)C(=O)NCC(=O)N1C[C@@H](C(=O)O)[C@H](c2ccc3c(c2)OCO3)C1,inactive
2,COc1cccc(CNC(=O)c2ccc3oc(-c4cccnc4)nc3c2)c1,"inconclusive: 35.5 µM [inhibitor, partial curve]"
3,Cc1ccc(-c2cccc(CN3CCCC3C(=O)NC3CCCCC3)c2)cc1Cl (configuration not stated),inactive
4,CCc1csc(CNC(=O)c2ccc(N(C)Cc3nonc3C)nc2)n1,inactive
5,CCCCc1nn(CC(=O)NCc2n[nH]c(C)n2)c(=O)n1CC,inactive
6,CSc1ccc(NC(=O)c2cc3c(s2)CN(C2CC2)C3)cc1,"inconclusive: 44.7 µM [inhibitor, partial curve, poor fit]"
7,COc1cccc(CNc2cc(Cl)nc3ccnn23)c1,active: 28.2 µM
8,Cc1cccc(NC(=O)c2ccc3c(c2)N(C)C2CCCCN2C3=O)c1 (configuration not stated),"inconclusive: 70.8 µM [inhibitor, single point]"
9,O=C1CC[C@@H](CN(Cc2ccncc2)C(=O)c2ccc3nccn3c2)N1,inactive
10,CC(C)(C)C1CCC2(CC1)NC(=O)N(CC(=O)NCc1ccccc1)C2=O (configuration not stated),inactive
11,C#CCN(CC=C)Cc1cnc(S(=O)(=O)CC2CCCCC2)n1CCOC,"inconclusive: 50.1 µM [inhibitor, partial curve, poor fit]"
12,COCCn1ncc(N2CCCC(CC(=O)NCc3ccc(F)cc3F)C2)cc1=O (configuration not stated),inactive
13,O=S(=O)(NCCc1noc(-c2ccccc2)n1)c1ccc(Cl)cc1,active: 28.2 µM
14,Cc1nc(C)n(CCCNC(=O)C2CCN(C(=O)C3CCC3)CC2)n1,inactive
15,OC1(CNCc2cc(C(F)(F)F)ccc2F)CNCCOC1 (configuration not stated),inactive
16,O=C(Cc1ccccc1Cl)NC1CCN(c2cc(C(F)(F)F)ncn2)CC1,inactive
17,CCCN(C)C(=O)Cc1ccc(N(Cc2ccccc2)C(=O)c2ccco2)cc1,"inconclusive: 39.8 µM [inhibitor, partial curve]"
18,CN(C)[S+](=O)([O-])c1ccc2c(c1)OCCN(Cc1cc(F)ccc1F)C2,"inconclusive: 44.7 µM [inhibitor, partial curve]"
19,C(=C\c1ccccc1)/CN1CCN(Cc2nc(COc3ccccc3)no2)CC1,"inconclusive: 11.2 µM [inhibitor, partial curve, poor fit]"
20,O=C(NC1CCCC1)N1CCCC(C(=O)N2CCC(c3nc4ccncc4[nH]3)CC2)C1 (configuration not stated),inactive
21,O=C(c1ccco1)N1c2ccccc2CC1c1nnc(C2CCOCC2)o1 (configuration not stated),"inconclusive: 70.8 µM [inhibitor, single point]"
